Out of some 110,000 compounds screened, about 230 (0.21%) showed an effect of 50% or more. Some of the results follow.
Target: DPAP1 (Plasmodium falciparum, UniProt Q8IIJ9)
Assay: primary screen, percent inhibition; read by cleavage of a fluorogenic dipeptide substrate; higher = more effect of the substance
Parameters: species or system P. falciparum D10 trophozoite lysates; single well
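Also: 30 min substrate incubation versus DMSO and 10 µM JCP410 controls.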

DPAP1, sequence (Q8IIJ9 whole entry, looked up): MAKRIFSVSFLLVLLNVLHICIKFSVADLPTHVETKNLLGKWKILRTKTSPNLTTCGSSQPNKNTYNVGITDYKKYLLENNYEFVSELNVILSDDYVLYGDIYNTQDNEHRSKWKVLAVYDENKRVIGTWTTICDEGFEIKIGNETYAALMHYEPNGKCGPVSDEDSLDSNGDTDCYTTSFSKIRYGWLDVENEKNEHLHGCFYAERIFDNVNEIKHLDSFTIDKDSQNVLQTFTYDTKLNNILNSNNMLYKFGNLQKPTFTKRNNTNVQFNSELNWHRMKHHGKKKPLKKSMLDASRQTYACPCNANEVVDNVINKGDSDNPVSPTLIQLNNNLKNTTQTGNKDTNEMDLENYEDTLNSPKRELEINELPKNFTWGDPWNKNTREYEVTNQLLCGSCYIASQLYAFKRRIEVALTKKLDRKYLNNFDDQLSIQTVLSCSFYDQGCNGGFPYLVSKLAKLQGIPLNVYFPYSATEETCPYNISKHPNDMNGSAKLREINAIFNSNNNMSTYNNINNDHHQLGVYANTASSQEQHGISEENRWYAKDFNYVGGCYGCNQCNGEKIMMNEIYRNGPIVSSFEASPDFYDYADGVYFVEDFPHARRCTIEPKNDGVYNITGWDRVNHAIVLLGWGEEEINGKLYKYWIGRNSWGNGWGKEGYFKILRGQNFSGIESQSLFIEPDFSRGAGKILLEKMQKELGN

Compound	% Inhibition @ 10 uM
CCC(CC)C(=O)Nc1cccc(NC(=O)C(CC)CC)n1	-3.26%
CCN(CC)C(=O)c1sc(NC(=O)C2CC2c2ccccc2)c(C#N)c1C (centres unmarked)	-0.941%
COCCN1C(=O)c2ccccc2C(C(=O)Nc2ccc(Cl)cn2)C1c1cccs1 (centres unmarked)	4.33%
C=CCNC(=O)CN(c1cc(Cl)ccc1C)S(=O)(=O)c1ccc(C)cc1	-5.19%
CCCC1CCc2c(sc(NC(=O)CCCC(=O)O)c2C(N)=O)C1 (centres unmarked)	0.687%
CC1=NN(c2ccccc2)C(=O)C1C(=O)c1ccccc1Br (centres unmarked)	2.55%
COc1cc2sc(NC(=O)c3cccc(C)c3OC)nc2cc1Cl	-0.403%
CCN(Cc1ccc(OC)cc1)S(=O)(=O)c1nnc(NC(=O)C(C)C)s1	-2.87%
O=C1OC(C2CCCCC2)=N/C1=C\c1ccc2c(c1)OCO2	-1.82%
Oc1cc(-c2ccccc2)c2ccccc2n1	-1.06%
COc1cc2nc(S)nc(NCc3ccccc3)c2cc1OC	-2.83%
CCCCN(CCCNC(=O)C1CCN(S(=O)(=O)N2CCOCC2)CC1)Cc1ccccc1	2.35%
CC(C)=C1C2C=CC1C1C(=O)N(c3cc(C)ccc3C)C(=O)C21 (centres unmarked)	-1.44%
COc1ccc(/C=c2\sc3nc(=O)c(Cc4ccc(Cl)cc4)nn3c2=O)cc1	3.93%
CCC(C)n1c(=O)c2sccc2n2c(CCCC(=O)NCc3ccc(F)cc3)nnc12 (centres unmarked)	-1.59%
COc1ccc(C2CC(c3ccc(-c4ccccc4)cc3)Nc3nnnn32)cc1 (centres unmarked)	-7.08%
CCN(CC)CCNC(=O)c1ccc(N2CCN(C)CC2)nc1	-0.116%
CCOC(=O)c1[nH]c2ccccc2c1NC(=O)C(c1ccccc1)c1ccccc1	4.14%
Cc1cc(C)nc(SCC(=O)c2ccc(O)c(O)c2)n1	9.13%
COc1ccc(OC)c(NC(=O)c2sc3nc(-c4cccs4)ccc3c2N)c1	5.66%
O=C(NC1CCCCCC1)c1cccnc1S	3.04%
CN1CCN(C(=O)CNC(=O)C2CCCCC2)CC1	-1.44%

Compound	% Inhibition @ 10 uM
C=CCN1C(=O)N/C(=C/c2cc(C)n(-c3ccccc3Cl)c2C)C1=O	3.75%
O=C(O)c1cc(Cl)c2c(c1)[C@@H]1C=CC[C@@H]1[C@H](c1ccccc1F)N2	12.7%
CN(C)c1ccc(NC(=O)c2ccc(Cn3cc(Cl)cn3)o2)cc1	2.49%
Cc1ccc2oc(Nc3ncc(C(=O)Nc4ccccc4C)c(C)n3)nc2c1	-0.318%
Cc1cc(C(=O)NCc2ccc(Cl)cc2)n(-c2ccccc2)n1	-2.14%
O=Cc1cn(Cc2c(F)cccc2Cl)c2ccccc12	-4.53%
Cc1cccc(/N=C/C2=C(O)CCCC2)c1Cl	-4.12%
CC[C@H](NC(=O)[C@H](Cc1c(F)cccc1F)NC(=O)c1ccc(-c2ccccc2Cl)cc1)C(=O)c1nc2ncccc2o1	2.87%
CCOC(=O)c1c(N)sc(C(=O)N(C)C)c1C	7.31%
N#C/C(=C/c1cccc(Cl)c1)c1nc(-c2ccc(Br)cc2)cs1	-1.25%
c1ccc2c(Cn3nnc4c(N5CCOCC5)ncnc43)cccc2c1	-0.0108%
NS(=O)(=O)c1ccc2cc(O)ccc2c1	-0.216%
CCC1CCC(N2CCCC(CO)C2)CC1 (centres unmarked)	4.65%
O=C1c2ccccc2C(=O)N1OCc1ccccc1	-4.11%
C=CCOc1ccc(/C=C2\C(=O)N(CCCOC)C(C)=C2C(=O)OC)cc1	-3.06%
Cc1ccccc1-c1nc(CS(=O)(=O)CC(=O)NC2CCCCC2C)c(C)o1 (centres unmarked)	-1.89%
CCOc1ccc(C(=O)OC2CC3CCC(C2)N3C)cc1 (centres unmarked)	12.8%
CCc1cc(C(=O)Nc2ccc(C)cc2Br)cs1	3.04%
Cc1ccnc(NS(=O)(=O)c2ccc(NC(=O)C(C)C)cc2)n1	-1.44%
CCOc1cc(C2c3c(-c4ccccc4O)n[nH]c3C(=O)N2CCO)ccc1O (centres unmarked)	-3.12%
CCCc1[nH]nc2c1C1(CCN(C(=O)OCC)CC1)C(C#N)=C(N)O2	-6.62%
CC1(C)CCc2c(O)c(-c3ccccc3)c(=O)n(-c3ccccc3)c2C1	3.05%

Compound	% Inhibition @ 10 uM
CCC1CCCCN1S(=O)(=O)c1ccc(Cl)cc1 (centres unmarked)	-0.856%
Cc1ccccc1CN1CCN(c2ccc(Cl)cc2)CC1	-2.7%
O=C(O)C1CC(c2ccccc2O)=NO1 (centres unmarked)	-1.37%
COc1cc(C2C(C#N)=C(N)Oc3[nH]nc(-c4ccc(Cl)c(Cl)c4)c32)ccc1O (centres unmarked)	-0.968%
COc1ccc(CN2CCN(Cc3cccc(F)c3)CC2)c(OC)c1OC	5.99%
CCc1ccc(NC(=O)c2ccc(C(=O)Nc3ccc(CC)cc3)cc2)cc1	-1.22%
CCOc1ccc(CCNC(=O)c2ccc(CS(=O)c3ccc(Br)cc3)o2)cc1 (centres unmarked)	-0.434%
O=C(Nc1ccc(NC(=O)c2cccs2)cc1)c1cccc(F)c1	-5.26%
Oc1ccccc1-c1nc(N2CCCC2)c2ccccc2n1	9.05%
COc1ccc2c(c1)C(SCC(=O)NCCc1ccc(Cl)cc1)CC(C)(C)O2 (centres unmarked)	-1.89%
O=C(Cn1ncc2c3ccccc3n(Cc3ccc(F)cc3)c2c1=O)NCCN1CCOCC1	0.137%
Cc1nc2ccccc2c2oc(C(=O)NC(C)CCc3ccccc3)cc12 (centres unmarked)	3.2%
CCOc1c(Cl)cc(CNCCSc2nnnn2-c2ccccc2)cc1OC	3.84%
COc1ccc(C)cc1Cn1c(S(C)(=O)=O)nc2ccccc21	-5.51%
O=c1oc2c3c(c(Cl)cc2c2c1CCCC2)OCN(Cc1ccco1)C3	4.13%
COc1ccc(CC(=O)N2CCN(c3ccccc3)CC2)cc1OC	-1.57%
COc1ccc(S(=O)(=O)N2CCN(c3nc(C)cc(C)n3)CC2)cc1	-6.74%
CC(C)CNC(=O)CC(c1ccccc1)c1c(O)ccc2ccccc12 (centres unmarked)	-1.68%
Cc1ccc(-c2nc(O)nc3ccc(Cl)cc23)cc1	12.1%
CC(=O)N1CCC(NCc2cccc(Cl)c2)CC1	-1.75%
COc1ccc(C(=O)Nc2ncc(C(F)(F)F)cc2Cl)cc1	6.79%

Reference: paper PMC6919601, “Identification of Plasmodium dipeptidyl aminopeptidase allosteric inhibitors by high throughput screening” (PLoS ONE, 2019)
